# The other results are listed elsewhere or left out. At the low end of the ranking the order means little.
# Molecular target: T1, GST-Rok (full length) (UniProt O34857)
# T1 sequence: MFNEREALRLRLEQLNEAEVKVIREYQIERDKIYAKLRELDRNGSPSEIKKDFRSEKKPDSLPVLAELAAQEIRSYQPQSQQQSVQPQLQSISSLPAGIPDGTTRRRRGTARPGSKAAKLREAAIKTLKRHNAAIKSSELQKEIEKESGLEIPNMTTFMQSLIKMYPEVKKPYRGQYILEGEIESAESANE
# Assay: protein binding microarray;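 further: rank score from −0.5 (least bound) to 0.5 (best bound)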
# Conditions: Rok is a gene silencer of Bacillus subtilis; high values mean tight binding; most listed sequences are background and not binding sites; double strand, one strand shown
row,Sequence,binding signal
1,AGGACACA,-0.163 E-score
2,AGGCCGTC,-0.0199 E-score
3,ACATACTC,0.162 E-score
4,ACGAGACC,-0.154 E-score
5,CTGTTGAA,-0.0398 E-score
6,CTCTACAA,0.0924 E-score
7,AATCATCT,0.00102 E-score
8,ACCTTTCA,-0.0427 E-score
9,ATGCAGGG,-0.148 E-score
10,CAGTTGTC,-0.0905 E-score
11,ATTGCCCC,-0.152 E-score
12,GCCGTTCC,-0.334 E-score
13,AGGTGACT,-0.218 E-score
14,ATTGACGC,0.0974 E-score
15,CACAGGGG,-0.304 E-score
16,CCCAACTA,0.138 E-score
17,AGAGAGTG,-0.0763 E-score
18,GGATCGCC,-0.182 E-score
19,AATGGACG,-0.0902 E-score
20,CTAGGTGA,-0.041 E-score
21,CCCGTAAG,-0.153 E-score
22,AAGCGGAA,-0.0368 E-score
23,TACTAATA,0.346 E-score
24,ACTGTGTC,0.0666 E-score
25,CACCCTGA,-0.0454 E-score

row,Sequence,binding signal
1,CTCTGGGC,-0.0543 E-score
2,ATAATTTG,0.284 E-score
3,GGTGAGAA,-0.0641 E-score
4,CTCCTCCA,-0.196 E-score
5,ACCCTAAA,0.024 E-score
6,ACCCATGA,0.159 E-score
7,CATTATGG,0.107 E-score
8,ACGCGCGC,0.178 E-score
9,AGATAGAC,0.108 E-score
10,GTTATCGA,0.0792 E-score
11,AGCTCAGG,-0.222 E-score
12,ATATCCTA,0.36 E-score
13,AGACGTCG,0.0554 E-score
14,AATAGGGA,0.043 E-score
15,CGCATCCC,-0.41 E-score
16,AGTCGTAG,-0.104 E-score
17,ATGGCACA,-0.0786 E-score
18,CTCCTTGC,-0.34 E-score
19,CATCCACG,-0.00909 E-score
20,GTCCCGAC,-0.0855 E-score
21,ATAACCTC,-0.0924 E-score
22,CTTCTAAC,0.0998 E-score
23,ATGCTCAG,-0.224 E-score
24,ACCATTTG,0.03 E-score
25,GTTTTAAA,0.149 E-score

row,Sequence,binding signal
1,AGGTATGC,0.154 E-score
2,CCCGGTTA,-0.0985 E-score
3,GCAGATTA,0.109 E-score
4,ATAGCTGG,0.125 E-score
5,ATATGTAA,0.286 E-score
6,TCACCGCA,-0.152 E-score
7,AGATAGTG,0.199 E-score
8,GTACATCA,0.176 E-score
9,TATTTCAA,0.201 E-score
10,GTGATGCA,-0.0315 E-score
11,CTCTGGCA,-0.213 E-score
12,ATCGACAT,-0.0715 E-score
13,CCGTTTGC,-0.0322 E-score
14,ATTCTCCG,0.212 E-score
15,CAGCGCTA,-0.0901 E-score
16,ACTTATAA,0.28 E-score
17,ATTAGCTA,0.286 E-score
18,AAGCACGT,0.0893 E-score
19,CGAGCGAA,-0.105 E-score
20,CAATCGAC,-0.0869 E-score
21,GACACACA,-0.0217 E-score
22,CCAGCCAC,-0.234 E-score
23,CATCTAGA,0.00809 E-score
24,GAAGGAAC,-0.0978 E-score
25,ATCGATGG,0.0568 E-score

row,Sequence,binding signal
1,ATATCACC,0.222 E-score
2,ATTCGCAC,-0.0552 E-score
3,CCGATTTC,-0.187 E-score
4,TCACTTAA,0.015 E-score
5,ACGAGCCC,-0.259 E-score
6,TCTCAGAA,0.127 E-score
7,ATGTGGCC,-0.141 E-score
8,ACACTACC,0.135 E-score
9,GGGAACTA,0.0241 E-score
10,ATGTATAA,0.385 E-score
11,CCTACGTA,-0.155 E-score
12,ACGCATTG,-0.0318 E-score
13,GATCATAC,0.197 E-score
14,ACATCCAT,0.255 E-score
15,ATAGATCA,0.16 E-score
16,ATGTTCAA,0.0892 E-score
17,ATTAGGGC,-0.117 E-score
18,AGATCTAT,0.312 E-score
19,CAGTACGG,-0.115 E-score
20,AGTAGCTA,0.386 E-score
21,CCGTTGTA,0.0748 E-score
22,AGAGCCCG,-0.189 E-score
23,CGAAGCAG,-0.266 E-score
24,GGATTATA,0.0423 E-score
25,ATAATGTC,0.175 E-score

row,Sequence,binding signal
1,GATCGGAC,-0.12 E-score
2,ACCCTCTC,-0.352 E-score
3,CAATGCCG,-0.0742 E-score
4,CACTGCTG,-0.0421 E-score
5,CAGAGAGG,-0.192 E-score
6,AAACACGG,-0.0353 E-score
7,ACAAGTCT,-0.123 E-score
8,ATAAAGAG,0.0318 E-score
9,GATTATCA,0.183 E-score
10,AGTCGCAC,-0.0838 E-score
11,AGGTAAGG,-0.137 E-score
12,ATTCTAAA,0.206 E-score
13,CCAGCTGG,-0.0435 E-score
14,AGGCAAGC,-0.186 E-score
15,CCCGCGAA,-0.0606 E-score
16,GACGGACA,-0.193 E-score
17,ACGGTGCG,-0.221 E-score
18,CAACTGCC,-0.222 E-score
19,GTACGCCA,-0.0467 E-score
20,AACCGAAC,0.13 E-score
21,AGCAACAC,0.17 E-score
22,ACACGTCA,0.0265 E-score
23,CCCGACCG,-0.311 E-score
24,ATACATGC,0.224 E-score
25,ATTTGTGC,-0.02 E-score

row,Sequence,binding signal
1,ATGCTCCA,0.0336 E-score
2,AGGGATCC,-0.341 E-score
3,CGACCTGC,-0.203 E-score
4,AAACAGAC,0.0378 E-score
5,CCGAGCCC,-0.402 E-score
6,AGTGTGAT,-0.0908 E-score
7,AGGCACAT,-0.0309 E-score
8,ATACAAGG,-0.0167 E-score
9,CTACATGA,0.347 E-score
10,AAGGCAGT,0.108 E-score
11,GCCGCTAC,0.121 E-score
12,ATTGATCC,0.00268 E-score
13,CATCTTTA,-0.129 E-score
14,CTCTAGTC,0.146 E-score
15,GATAGCGC,0.224 E-score
16,GAAAACAC,0.0542 E-score
17,TATCCACA,0.0289 E-score
18,ATTATTTA,0.406 E-score
19,GAACTGGC,-0.104 E-score
20,ACGTCGGA,1.16e-05 E-score
21,GTAACTAA,0.304 E-score
22,ATGTTAGC,0.11 E-score
23,ATCTCCTG,-0.147 E-score
24,CGGGCCAC,-0.203 E-score
25,TTATCGAA,0.145 E-score

row,Sequence,binding signal
1,GACTGCGA,-0.158 E-score
2,ACAGGATA,0.151 E-score
3,GGAACTGA,-0.0362 E-score
4,CACAGATA,0.217 E-score
5,CACGGCCA,-0.0528 E-score
6,TAGCCTAA,-0.0202 E-score
7,AAAGCTAA,0.0948 E-score
8,AGAAAAAA,0.0774 E-score
9,GTGTACCA,-0.0444 E-score
10,ACGAGGGG,-0.276 E-score
11,CGCGGACG,-0.152 E-score
12,GCTTGGCC,-0.395 E-score
13,CAAGTGAG,-0.171 E-score
14,ATTGACAA,0.0319 E-score
15,ACCTACGA,0.202 E-score
16,CTCCTAAG,-0.05 E-score
17,AGCTCGAC,-0.122 E-score
18,AAGTGTAC,0.126 E-score
19,ATGGGGGG,-0.466 E-score
20,CAATGCTA,0.175 E-score
21,CACCGAAG,-0.257 E-score
22,GAATCGCA,-0.126 E-score
23,GTAATGGA,0.266 E-score
24,ACTCATTA,-0.0443 E-score
25,ATAAAATC,0.295 E-score

row,Sequence,binding signal
1,AATAATGA,0.0976 E-score
2,AGACTTAT,0.0949 E-score
3,GGCTCAAA,-0.0922 E-score
4,CGAAAAAA,-0.0641 E-score
5,ATTGTCTA,0.136 E-score
6,AGACGCAC,-0.237 E-score
7,ACATTGGT,0.186 E-score
8,TAGGCCGA,-0.156 E-score
9,GAGAGTGC,-0.163 E-score
10,CGACTCCC,-0.318 E-score
11,CGCACATA,0.136 E-score
12,ATTGATGA,0.00641 E-score
13,AAGAACTT,-0.0219 E-score
14,CTGGCGGC,-0.218 E-score
15,CTGATGGC,-0.154 E-score
16,CTTAAGTC,-0.158 E-score
17,AGCGTCTG,0.0355 E-score
18,ATGGCCCG,-0.197 E-score
19,CCCTTGAA,-0.232 E-score
20,AATTGGGA,-0.0694 E-score
21,ATCGGCCG,-0.0783 E-score
22,GTCACAGA,-0.117 E-score
23,AGTTTTAT,0.29 E-score
24,TAAGTCGA,0.0375 E-score
25,CCTCGACC,-0.301 E-score

row,Sequence,binding signal
1,CTACACAC,-0.00896 E-score
2,GAGCAGCA,-0.191 E-score
3,CGTTCACA,-0.0773 E-score
4,GGGAACAA,-0.0801 E-score
5,CGATCTGA,0.0905 E-score
6,ACAAAAGA,-0.0301 E-score
7,AGTCGAAC,-0.0148 E-score
8,ATGGGAGA,-0.0104 E-score
9,CTGTAGGC,-0.0493 E-score
10,ATGCCCCA,-0.34 E-score
11,AGACTGTA,0.117 E-score
12,GAGGGAAC,-0.167 E-score
13,TATAAGAA,0.184 E-score
14,AGCATCAG,-0.0321 E-score
15,ACTATCAT,0.29 E-score
16,CCAGATAA,0.0351 E-score
17,AGCTTAGC,0.0674 E-score
18,AGCATCAA,-0.0955 E-score
19,TACTCGCA,-0.0973 E-score
